Results: the supplement of paper PMC4967469

Compound: CCc1nc(-c2cccc(C)c2)c(-c2ccnc(NC(=O)c3ccccc3)c2)s1 [TAK-715]
Assay: Viability of human cancer cell lines after 72 h of drug (GDSC screen)
Conditions: top dose inferred
Description: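 Human cancer cell lines in 384-well plates, medium with 10% serum, drug for 72 h over a 256-fold dose range (nine 2-fold or five 4-fold steps up to the top dose). Adherent lines were fixed and stained with the nucleic acid dye Syto60, suspension lines read with resazurin; signal relative to control wells, capped at 0 and 100%. One two-parameter sigmoid per drug and line, fitted in a mixed model over all curves with the slope shared within a line.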

| Cell Line | AUC | IC50 [µM] |
| --- | --- | --- |
| ES4 (Ewing sarcoma, adherent, top dose 20 µM) | 0.808 | 12.2 |
| ES5 (Ewing sarcoma, adherent, top dose 20 µM) | 0.741 | 6.89 |
| ES6 (Ewing sarcoma, adherent, top dose 20 µM) | 0.955 | > 20 |
| ES7 (Ewing sarcoma, adherent, top dose 20 µM) | 0.857 | 17 |
| ES8 (Ewing sarcoma, adherent, top dose 20 µM) | 0.881 | 18.2 |
| ES-2 (ovary, adherent, top dose 20 µM) | 0.956 | > 20 |
| ESO26 (oesophagus, adherent, top dose 20 µM) | 0.874 | 17.5 |
| ESO51 (oesophagus, semi-adherent, top dose 20 µM) | 0.955 | > 20 |
| ESS-1 (endometrium, adherent, top dose 20 µM) | 0.969 | > 20 |
| ETK-1 (biliary tract, adherent, top dose 20 µM) | 0.933 | > 20 |
| EVSA-T (breast, adherent, top dose 20 µM) | 0.958 | > 20 |
| EW-1 (Ewing sarcoma, semi-adherent, top dose 20 µM) | 0.878 | 17.5 |
| EW-3 (Ewing sarcoma, adherent, top dose 20 µM) | 0.956 | > 20 |
| EW-7 (Ewing sarcoma, semi-adherent, top dose 20 µM) | 0.903 | > 20 |
| EW-11 (Ewing sarcoma, adherent, top dose 20 µM) | 0.98 | > 20 |
| EW-13 (Ewing sarcoma, suspension, top dose 20 µM) | 0.786 | 9.67 |
| EW-16 (Ewing sarcoma, adherent, top dose 20 µM) | 0.934 | > 20 |
| EW-18 (Ewing sarcoma, suspension, top dose 20 µM) | 0.858 | 18.3 |
| EW-24 (Ewing sarcoma, semi-adherent, top dose 20 µM) | 0.942 | > 20 |
| EoL-1-cell (haematopoietic neoplasm, suspension, top dose 20 µM) | 0.848 | 12.3 |
| FADU (head and neck, adherent, top dose 20 µM) | 0.959 | > 20 |

| Cell Line | AUC | IC50 [µM] |
| --- | --- | --- |
| FLO-1 (oesophagus, adherent, top dose 20 µM) | 0.904 | > 20 |
| FTC-133 (thyroid, adherent, top dose 20 µM) | 0.976 | > 20 |
| FU97 (stomach, adherent, top dose 20 µM) | 0.894 | > 20 |
| FU-OV-1 (ovary, adherent, top dose 20 µM) | 0.881 | > 20 |
| Farage (B-cell lymphoma, suspension, top dose 20 µM) | 0.861 | 12.2 |
| G-292 Clone A141B1 (osteosarcoma, adherent, top dose 20 µM) | 0.976 | > 20 |
| G-361 (melanoma, adherent, top dose 20 µM) | 0.937 | > 20 |
| G-401 (kidney, adherent, top dose 20 µM) | 0.815 | 12.4 |
| G-402 (soft tissue, adherent, top dose 20 µM) | 0.926 | > 20 |
| G-MEL (melanoma, adherent, top dose 20 µM) | 0.93 | > 20 |
| GAK (melanoma, adherent, top dose 20 µM) | 0.978 | > 20 |
| GAMG (glioma, adherent, top dose 20 µM) | 0.967 | > 20 |
| GB-1 (glioma, adherent, top dose 20 µM) | 0.958 | > 20 |
| GCIY (stomach, adherent, top dose 20 µM) | 0.976 | > 20 |
| GCT (soft tissue, adherent, top dose 20 µM) | 0.989 | > 20 |
| GDM-1 (acute myeloid leukaemia, suspension, top dose 20 µM) | 0.815 | 10.4 |
| GI-1 (glioma, adherent, top dose 20 µM) | 0.977 | > 20 |
| GI-ME-N (neuroblastoma, adherent, top dose 20 µM) | 0.936 | > 20 |
| GMS-10 (glioma, adherent, top dose 20 µM) | 0.988 | > 20 |
| GOTO (neuroblastoma, adherent, top dose 20 µM) | 0.951 | > 20 |
| GP5d (large intestine, adherent, top dose 20 µM) | 0.954 | > 20 |

| Cell Line | AUC | IC50 [µM] |
| --- | --- | --- |
| GR-ST (lymphoblastic leukaemia, suspension, top dose 20 µM) | 0.902 | > 20 |
| GRANTA-519 (B-cell lymphoma, suspension, top dose 20 µM) | 0.883 | 17.6 |
| GT3TKB (stomach, adherent, top dose 20 µM) | 0.95 | > 20 |
| H4 (glioma, adherent, top dose 20 µM) | 0.894 | > 20 |
| H9 (lymphoid neoplasm, suspension, top dose 20 µM) | 0.984 | > 20 |
| H290 (mesothelioma, adherent, top dose 20 µM) | 0.97 | > 20 |
| H513 (mesothelioma, semi-adherent, top dose 20 µM) | 0.979 | > 20 |
| H2369 (mesothelioma, adherent, top dose 20 µM) | 0.983 | > 20 |
| H2373 (mesothelioma, adherent, top dose 20 µM) | 0.982 | > 20 |
| H2461 (mesothelioma, adherent, top dose 20 µM) | 0.983 | > 20 |
| H2591 (mesothelioma, adherent, top dose 20 µM) | 0.962 | > 20 |
| H2595 (mesothelioma, adherent, top dose 20 µM) | 0.977 | > 20 |
| H2722 (mesothelioma, adherent, top dose 20 µM) | 0.984 | > 20 |
| H2731 (mesothelioma, adherent, top dose 20 µM) | 0.898 | > 20 |
| H2795 (mesothelioma, adherent, top dose 20 µM) | 0.947 | > 20 |
| H2803 (mesothelioma, adherent, top dose 20 µM) | 0.959 | > 20 |
| H2804 (mesothelioma, adherent, top dose 20 µM) | 0.986 | > 20 |
| H2818 (mesothelioma, adherent, top dose 20 µM) | 0.972 | > 20 |
| H2869 (mesothelioma, adherent, top dose 20 µM) | 0.984 | > 20 |
| H3118 (head and neck, adherent, top dose 20 µM) | 0.764 | 7.94 |
| H3255 (lung adenocarcinoma, adherent, top dose 20 µM) | 0.918 | > 20 |

| Cell Line | AUC | IC50 [µM] |
| --- | --- | --- |
| H-EMC-SS (chondrosarcoma, adherent, top dose 20 µM) | 0.979 | > 20 |
| HA7-RCC (kidney, adherent, top dose 20 µM) | 0.955 | > 20 |
| HAL-01 (lymphoblastic leukaemia, suspension, top dose 20 µM) | 0.754 | 6.03 |
| HARA (lung squamous cell carcinoma, adherent, top dose 20 µM) | 0.819 | 13.9 |
| HC-1 (hairy cell leukaemia, suspension, top dose 20 µM) | 0.888 | > 20 |
| HCC38 (breast, adherent, top dose 20 µM) | 0.945 | > 20 |
| HCC70 (breast, adherent, top dose 20 µM) | 0.963 | > 20 |
| HCC202 (breast, adherent, top dose 20 µM) | 0.885 | > 20 |
| HCC1143 (breast, adherent, top dose 20 µM) | 0.962 | > 20 |
| HCC1187 (breast, suspension, top dose 20 µM) | 0.912 | > 20 |
| HCC1395 (breast, adherent, top dose 20 µM) | 0.972 | > 20 |
| HCC1419 (breast, adherent, top dose 20 µM) | 0.925 | > 20 |
| HCC1428 (breast, adherent, top dose 20 µM) | 0.975 | > 20 |
| HCC1500 (breast, adherent, top dose 10.24 µM) | 0.912 | > 10.2 |
| HCC1569 (breast, adherent, top dose 20 µM) | 0.92 | > 20 |
| HCC1599 (breast, suspension, top dose 20 µM) | 0.894 | > 20 |
| HCC1806 (breast, adherent, top dose 20 µM) | 0.932 | > 20 |
| HCC1937 (breast, adherent, top dose 20 µM) | 0.963 | > 20 |
| HCC1954 (breast, adherent, top dose 20 µM) | 0.864 | > 20 |
| HCC2157 (breast, suspension, top dose 20 µM) | 0.965 | > 20 |
| HCC2218 (breast, suspension, top dose 20 µM) | 0.824 | 16.1 |

A lower IC50 marks a more sensitive line; where the fit passes the top or lowest dose, that dose stands as a limit. AUC is the area under the same curve over the 256-fold range up to the top dose, as a fraction; values near 1 show little effect. A top dose marked as inferred was calculated from the reported fits.
